From article PMC7819943, “Rice protein-binding microarrays: a tool to detect cis-acting elements near promoter regions in rice”
This is one part of the list.

Each sequence was assayed against T1, OsWOX13 (Oryza sativa, UniProt Q5QMM3 1-267) (assay: protein-binding microarray (RPBM); PBS, 2% BSA, 51.3 ng/ul salmon testes DNA, 50 uM zinc acetate, 200 nM TF, 25 C, 1 h; high values mean tight binding). Conditions: protein: recombinant; tags: N-terminal polyhistidine and DsRed monomer fusion (pET32a); label: CyDye5-dUTP incorporated in the synthesized complementary strand; 3' TTTTT single-stranded linker to array surface; dsDNA, one strand shown.
T1 sequence: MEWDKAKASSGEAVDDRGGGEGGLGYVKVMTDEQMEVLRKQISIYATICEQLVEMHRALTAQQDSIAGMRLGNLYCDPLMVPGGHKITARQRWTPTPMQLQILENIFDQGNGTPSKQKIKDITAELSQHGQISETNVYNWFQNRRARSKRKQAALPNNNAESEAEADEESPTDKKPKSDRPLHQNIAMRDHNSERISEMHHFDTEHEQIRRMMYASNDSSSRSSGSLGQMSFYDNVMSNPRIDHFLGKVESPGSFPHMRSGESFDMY
Procedure, shortened: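 A custom Agilent array was converted to double-stranded form by primer extension with Cy5-dUTP and blocked with 2% BSA. Protein at 200 nM in PBS with 2% BSA, salmon testes DNA and 50 µM zinc acetate was applied for 1 h at 25 °C, followed by washing. The proteins were polyhistidine–DsRed N-terminal fusions of transcription factors, expressed in E. coli BL21-CodonPlus and Ni–NTA-purified. The binding signal is per-feature fluorescence intensity (arbitrary units) from an Axon 4000B scanner.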
In the case of “CTTAATTTGTCACCGAATCCGATTTTCGTACCTCAACCAACGGAGTCACCTAGTGCAG”, the binding signal is reported as 24700 fluorescence intensity (a.u.). With “ATAAAATAGTTGACTGGCTATCTTCTACTCCACTTGGTATCGGAGTCACCTAGTGCAG” the binding signal was 5320 fluorescence intensity (a.u.). With “CATAAACCAAAATTTGAATACAAATTCCTTGAGTTTACCGCGGAGTCACCTAGTGCAG” the binding signal was 5990 fluorescence intensity (a.u.). “AGATGTGATGGGATTGAATCCCATGAATCCAACCAACGGCCGGAGTCACCTAGTGCAG” was tested, and the binding signal was 10600 fluorescence intensity (a.u.). For “ATCCAATTAACATCCCAATCCGAGCCAAATATTATCAAACCGGAGTCACCTAGTGCAG”, the binding signal was 14800 fluorescence intensity (a.u.). With “TCTGATTCATTGTTAAATATACTTTCATGTAGACATGTAGCGGAGTCACCTAGTGCAG” the binding signal was 7600 fluorescence intensity (a.u.). For “GGCTGCAGTCAGTTTGGATCCAATCATCCAACTGGGATCACGGAGTCACCTAGTGCAG”, the binding signal was 6410 fluorescence intensity (a.u.). For “CCAATTGACTATATATAACATAGTACTTGCTAGCTTAATTCGGAGTCACCTAGTGCAG”, the binding signal was 3640 fluorescence intensity (a.u.). With “AATATACTGACTTGAGTGACTGAATGGAGGGGAAATCTGTCGGAGTCACCTAGTGCAG” the binding signal was 5680 fluorescence intensity (a.u.). In the case of “ATCCGCATTAACATATTTAATCACACGTGTTATCTCAAACCGGAGTCACCTAGTGCAG”, the binding signal is reported as 7030 fluorescence intensity (a.u.). With “CCTTTTCTATTTACAAATCAATTTCATATGGTCTCTGAAGCGGAGTCACCTAGTGCAG” the binding signal was 4580 fluorescence intensity (a.u.). In the case of “TCTGCTTTGAAAAGATAATTAATTAAGATGTACTCCCTCCCGGAGTCACCTAGTGCAG”, the binding signal is reported as 8000 fluorescence intensity (a.u.). With “GCATAGTCGATTAATTAATTGTAAGCCCATCGAATTACACCGGAGTCACCTAGTGCAG” the binding signal was 22600 fluorescence intensity (a.u.). With “GGACTATCACCACTAAATTGAGGGCACAACATTGGCGGCACGGAGTCACCTAGTGCAG” the binding signal was 6590 fluorescence intensity (a.u.). For “GACTTGGAGTGATTTGCTCTCAACAGTAGAGAGTTGTTGGCGGAGTCACCTAGTGCAG”, the binding signal was 4800 fluorescence intensity (a.u.). In the case of “GTTATAAATTTAAGATGACATGATTCAAGTAATTTTAGTTCGGAGTCACCTAGTGCAG”, the binding signal is reported as 9730 fluorescence intensity (a.u.). With “CTCTAATACTGATTACTGATTGCATACCTGTTCCCTTAGGCGGAGTCACCTAGTGCAG” the binding signal was 24700 fluorescence intensity (a.u.). For “ACTAGATTACTCACAGTTGTTAGGGATGAGGTGAGGGCACCGGAGTCACCTAGTGCAG”, the binding signal was 3660 fluorescence intensity (a.u.). For “CTTAACTGAGAATTGATGTTTCTGTGGTGGATTTGGTCAGCGGAGTCACCTAGTGCAG”, the binding signal was 46900 fluorescence intensity (a.u.). In the case of “CTCAGCAATAGACTAGATTAATAGTAAATCACCTTAATAGCGGAGTCACCTAGTGCAG”, the binding signal is reported as 3230 fluorescence intensity (a.u.). For “ATGATTGTCAACTCAACTGAACCTGAACCAGTTTTACCTACGGAGTCACCTAGTGCAG”, the binding signal was 10800 fluorescence intensity (a.u.). In the case of “ATTGTGGATTTTAATTTTAATTGCTTTCTGAAAATATTTTCGGAGTCACCTAGTGCAG”, the binding signal is reported as 3780 fluorescence intensity (a.u.). With “AAATTTTCAGATAATTTTGTGTTATGTGTAGACCTCGACGCGGAGTCACCTAGTGCAG” the binding signal was 3680 fluorescence intensity (a.u.).
